# Laboratory results as given in PubChem BioAssay AID1347073 (National Center for Advancing Translational Sciences (NCATS), 2019).
# Screen size: about 45,000 compounds; about 200 (0.44%) were called active. Not shown: some 7% with an inconclusive outcome. The call rests on the fitted dose curve; in most records, active means well fitted activation curve with a large enough effect; inconclusive means small, poorly fitted or top-dose-only effect; inactive means no such curve, though single readings can be large or run the other way. The list shows a part of the results.
# Assay: qHTS of TDP-43 Inhibitors: NCGC Sytravon Library Screen; further: 0% is about no effect; nearly all actives have a fitted effect of over 55% in size
# Details: yeast TDP-43 toxicity rescue, BacTiter-Glo growth, 24 h; series mostly up to 46.1 µM; growth rescue (activation): at the top concentration
# How it was run: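 TDP-43-expressing yeast, pregrown in raffinose, seeded at OD600 0.02 in galactose medium with compound for 24 hr at 30 deg C. Growth read by BacTiter-Glo luminescence, so rescue of toxicity appears as activation.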
row,Structure (SMILES),growth rescue (activation)
1,COCCCNc1ccn2nc(-c3cc(OC)c(OC)c(OC)c3)cc2n1,inactive: 8.39%
2,CC(=O)c1ccc(OCC(O)CN2CCc3ccccc3C2)cc1 (centres undefined),inactive: -0.584%
3,O=C(CSc1nc2c(c(=O)n1-c1ccc(Cl)cc1)SCC2)NCC1CCCO1 (centres undefined),inactive: 2.45%
4,COCCCN1C(=O)C(=O)/C(=C(/O)c2ccc(OC)cc2)C1c1cccc(OC)c1 (centres undefined),inactive: 29.6%
5,CC(=O)NC(C)(c1ccccc1)c1nc(-c2cncnc2)cs1 (centres undefined),inactive: 10.4%
6,CCOc1ccc(C(=O)NCc2ccc3c(c2)OCO3)cc1,inactive: 30%
7,CCOc1ccc(N(CC(=O)NCC2CCCO2)C(=O)CCC(=O)Nc2nccs2)cc1 (centres undefined),inactive: 0.31%
8,Cc1ccc(S(=O)(=O)NCC(=O)Nc2ccc3c(c2)OCCO3)cc1,inactive: 0.789%
9,CCc1ccc(NC(=S)N(CCCN2CCOCC2)Cc2ccco2)cc1,inactive: 2.86%
10,Cc1cccc(N2CCN(C(=O)c3ccc4nccnc4c3)CC2C)c1 (centres undefined),inactive: 21.6%
11,O=C(CCS(=O)(=O)c1ccc(Br)cc1)Nc1cc(F)ccc1F,inactive: 18.7%
12,CCC(C)NC(=O)CSc1n[nH]c(=O)n1CCc1ccccc1 (centres undefined),inactive: 9.74%
13,Cc1ccc(S(=O)(=O)Nc2cccc3c2CCCC3)cc1,inactive: 5.58%
14,CCc1nc2c(OCc3ccccc3C)cccn2c1N(C)C(=O)CC(C)C,inactive: 0.687%
15,CN(C)CC(=O)N1c2ccccc2Sc2ccc(Cl)cc21,inactive: 0.204%
16,CC(=O)Nc1ccc(NC(=O)c2cc(-c3ccc(F)cc3C)n[nH]2)cc1,inactive: -1.95%
17,CCC1(c2ccc(Cl)cc2)NC(=O)N(CC(=O)NCc2ccc(F)cc2)C1=O (centres undefined),inactive: 7.53%
18,COc1ccc(OC)c(C=NNC(=O)c2ccc(NS(=O)(=O)c3cccs3)cc2)c1,inactive: 1.26%
19,Cn1nnnc1SCC(=O)N(C1CCCCC1)C1CCCCC1,inactive: 2.96%
20,COc1ccccc1N(CC(=O)NC1CCCC1)C(=O)c1oc(C(C)(C)C)cc1C,inactive: 26.6%
21,COc1cc(-c2nc3sccn3c2Nc2c(C)cccc2C)ccc1O,inactive: 2.72%
22,C/C(=N\NC(=O)Cc1cccn1C)c1cccs1,inactive: 20.9%
23,Cc1nn2c(Nc3ccc(F)cc3)c3c(nc2c1-c1ccccc1)CCC3,inactive: 8.18%

row,Structure (SMILES),growth rescue (activation)
1,CC(=O)CC1(OC(C)=O)C(=O)N(C)c2ccccc21 (centres undefined),inactive: -4.53%
2,CC(c1nc2scc(-c3ccccc3)c2c(=O)[nH]1)N1CCN(CC(=O)NC2CC2)CC1 (centres undefined),inactive: -15.7%
3,O=C(NCc1ccc(F)cc1)C1CCN(S(=O)(=O)N2CCCC2)CC1,inactive: -0.919%
4,COc1ccc(NC(=O)c2ccc(OCc3c(C)noc3C)c(OC)c2)cn1,inactive: 2.05%
5,O=C(CN1CCN(c2ccc(O)cc2)CC1)Nc1cc(S(=O)(=O)N2CCOCC2)ccc1Cl,inactive: 8.99%
6,CCCCn1c(=S)[nH]c2ncccc2c1=O,inactive: 11.5%
7,CCOC(=O)c1c(NC(=O)CN2C(=O)NC3(CCCCC3)C2=O)sc(C)c1-c1ccc(C)cc1,inactive: -0.841%
8,CCN(CC(=O)NCc1ccc(F)cc1)CC(=O)Nc1ccc(Br)cc1F,inactive: -17.2%
9,Cc1ccccc1N1CC(C(=O)N2CC(C)OC(C)C2)CC1=O (centres undefined),inactive: 10.9%
10,O=C(NC(c1ccc(F)cc1)c1ccc2ccccc2n1)C1CCN(CCOc2ccc(F)cc2)CC1 (centres undefined),inactive: 1.5%
11,Cc1c(/C(O)=C2\C(=O)C(=O)N(CCN(C)C)C2c2ccccc2)cnn1-c1ccccc1 (centres undefined),inactive: -3.85%
12,O=C(O)c1ccc(N/N=C/c2ccc3c(c2)OCO3)cc1,inactive: -37.4%
13,O=C(OC1Cn2c(=O)ccc(=O)n2C1)c1ccc([N+](=O)[O-])cc1,inactive: 8.64%
14,CCS(=O)(=O)NCc1cn2ccsc2n1,inactive: 3.52%
15,Cc1ccc(S(=O)(=O)NCC(=O)Nc2cccnc2)cc1C,inactive: -2.73%
16,Cc1ccc(CN2CCN(Cc3cn(C)nc3-c3ccccc3)CC2CCO)o1 (centres undefined),inactive: 3.69%
17,COc1ccccc1N1CCN(C2CCCN(C(=O)CCc3ccccn3)C2)CC1 (centres undefined),inactive: 11.2%
18,O=C(CCNC(=O)c1ccccc1Cl)NN=Cc1ccco1,inactive: 19.4%
19,CCOC(=O)c1ccc(CNC(=O)CSc2nnnn2-c2ccc(Cl)cc2)o1,inactive: 25.7%
20,CC(C)CNC1=C(C(=S)Nc2ccccc2)C(=O)CC(C)(C)C1,inactive: 26.9%
21,CC(C)C1NC(=S)N(C2CCCCC2)C1=O (centres undefined),inactive: 20.7%
22,CCc1nnc(NC(=O)CSc2sc3c(O)cc(=O)[nH]c3c2C#N)s1,inactive: 6.45%
23,CCNc1nc(NCC)nc(N(C#N)C(C)C)n1,inactive: 19.3%

row,Structure (SMILES),growth rescue (activation)
1,CCOC(=O)N1CCN(C(=O)COC(=O)c2ccc(O)cc2O)CC1,inactive: -13.6%
2,COc1ccc(S(=O)(=O)N2CCOCC2)cc1NC(=O)CSc1nnc(NC2CC2)s1,inactive: 8.11%
3,COc1ccccc1C(=O)N1CCN(S(=O)(=O)c2ccccc2)CC1,inactive: -0.521%
4,COc1ccccc1NC(=O)/C(C#N)=C/c1cc([N+](=O)[O-])ccc1N1CCCC1,inactive: -16.5%
5,Fc1nc(F)c(F)c(NCCCNc2c(F)c(F)nc(F)c2F)c1F,inactive: 27.9%
6,COc1ccc(NC(=O)C(NC(=O)c2ccc(=O)[nH]c2)c2ccc(OC)cc2)cc1 (centres undefined),inactive: 10.2%
7,Cc1cc(Br)cc(C)c1NC(=O)c1ccc(C#N)cc1F,inactive: 5.58%
8,Cc1onc(C(=O)NC(C)c2ccccc2)c1[N+](=O)[O-] (centres undefined),inactive: -0.142%
9,COc1cccc(CN(C)C(c2ccccc2)c2ccccc2)c1OC,inactive: -10.1%
10,COc1ccc(-c2nc3cc(NC(=S)NC(=O)Cc4ccccc4)ccc3o2)cc1,inactive: 13.1%
11,CC1(C(=O)Nc2cccnc2)Cc2c(-c3ccc4c(c3)OCO4)ccnc2O1 (centres undefined),inactive: -0.0916%
12,CCCS(=O)(=O)NC(=O)C1(C)CCCN(C(=O)c2cc(-c3ccccc3)cs2)C1 (centres undefined),inactive: -8.33%
13,O=c1cc(-c2ccco2)oc2c1ccc1ccccc12,inactive: 0.725%
14,OCCC1CN(Cc2cccc(OC3CCCC3)c2)CCN1Cc1ccsc1 (centres undefined),inactive: 9.23%
15,CN(CCOc1ccccc1)C(=O)C1CCC(=O)N(CCc2ccc(Cl)cc2)C1 (centres undefined),inactive: 14.1%
16,CC(NC(=O)c1ccc([N+](=O)[O-])cc1Cl)C1CC2CCC1C2 (centres undefined),inactive: 34.6%
17,COc1ccc(OC)c(-n2c(-c3cccc(S(=O)(=O)N(C)C)c3)n[nH]c2=S)c1,inactive: 3.15%
18,Fc1ccc(COc2ccccc2CNc2nn[nH]n2)cc1,inactive: -2.34%
19,Cc1cccc(NC(=S)NC(=O)c2oc3ccccc3c2C)n1,inactive: -0.905%
20,O=C(NCc1ccc(Cl)cc1)C1CCN(S(=O)(=O)c2cccc3nonc23)CC1,inactive: -7.04%
21,O=C(COc1ccc(Cl)cc1)NNC(=O)c1ccc(=O)[nH]c1,inactive: 8.03%
22,OC[C@@H]1CN(C2CCCC2)C[C@H](n2cnc3c(NC4CCC4)ncnc32)O1,inactive: 12%
23,CC(C)c1nnc(NC(=O)CN(C)S(=O)(=O)c2ccc3c(c2)OCCO3)s1,inactive: 9.58%
